Values marked as one replicate rest on one cluster of the flow cell; about a third of the high ones do not repeat.
The sequences below were run on ATP (assay: switch fluorescence ratio, 500 uM ATP over buffer (Cy3 cluster intensity, sum of 5 cycles each) (fold (ratio)); higher = stronger signal-on switching upon ATP binding; sequences stand for … in TCGTCGGCAGCGTCAGATGTGTATAAGAGACAGTTTTTTTTTTTTTTTTTTTTTTTTT…TC). Details: aptamer strand: ATP DNA aptamer (quencher-CACCTGGGGGAGTATTGCGGAGGAAGG + anchor), 100 nM annealed; ATP concentration: 500 uM; one replicate.
In short: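 For every switch-domain sequence, the fluorescence ratio is the mean of per-cluster values, each being summed target-cycle Cy3 intensity over summed buffer-cycle Cy3 intensity. Clusters outside 100-1000 RFU were excluded. On a modified Illumina MiSeq flow-cell, the Cy3-labelled switching-strand clusters were annealed to 100 nM quencher-labelled ATP aptamer, imaged in selection buffer and then after 15 min with 500 uM ATP at 22 °C. Five such cycles were run, with NaOH stripping and re-annealing between them.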
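Also: ATP exposure 15 min at 22 °C before imaging.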

Sequence | switch fluorescence ratio
ACGTACACCT | 1.47
ACGTACGCCT | 1.38
ACGTAGAGTG | 1.05
ACGTAGCTA | 2.67
ACGTAGGCCT | 1.14
ACGTAGTTAA | 1.03
ACGTAGTTT | 1.02
ACGTATCAA | 1.14
ACGTCAGGGA | 1.01
ACGTCCTGTA | 0.979
ACGTCGGCTG | 1.07
ACGTCGTTCG | 0.993
ACGTCTTACA | 1.12
ACGTCTTCGC | 1.06
ACGTGCATTT | 0.983
ACGTGCCACG | 1.02
ACGTGCCGGC | 0.997
ACGTGCGGGA | 1.03
ACGTGGGCTG | 1.07
ACGTGGGGAT | 1.01
ACGTGGGTAT | 1.01
ACGTGTGAAA | 0.936
ACGTTAAACT | 1.14
ACGTTAGCAC | 1.02
ACGTTCAAGT | 1.03

Sequence | switch fluorescence ratio
ACGTTCAATT | 1.03
ACGTTCACGT | 0.995
ACGTTCCTGA | 1.07
ACGTTCGCCT | 1.01
ACGTTCGTGG | 1.04
ACGTTGGCAT | 1.04
ACGTTTATGG | 1.01
ACGTTTGATG | 1.04
ACGTTTGGAC | 1.05
ACGTTTGGCC | 0.988
ACGTTTGTCA | 1.02
ACGTTTTTTC | 1.04
ACTAAAAATC | 1.04
ACTAAACAAA | 1.02
ACTAAGCTCA | 1.09
ACTAAGGCAT | 1.03
ACTACGTCCG | 1.11
ACTACTAGGC | 1.03
ACTAGACGGA | 1.06
ACTAGGCAAA | 1.14
ACTAGGCTTC | 1.04
ACTAGTAAAA | 0.971
ACTAGTAGT | 1.02
ACTATACCCC | 2.9
ACTATAGGTG | 1.24

Sequence | switch fluorescence ratio
ACTATATACT | 1.13
ACTATATTAT | 1.04
ACTATGACCT | 1.29
ACTATGACGC | 1.03
ACTATGGGCT | 0.969
ACTATGTCCA | 0.975
ACTATTCAAG | 1.02
ACTATTGG | 0.983
ACTATTTCAG | 1.03
ACTATTTCTG | 1.01
ACTCAACCCG | 1.17
ACTCAAGA | 1.18
ACTCAAGAAC | 1.86
ACTCAATGCC | 1.08
ACTCACTCAT | 1.22
ACTCATAGGG | 1.13
ACTCATCGTC | 1.06
ACTCATGCCC | 1.1
ACTCATTCGT | 1.03
ACTCCCATCG | 1.72
ACTCCGGGGT | 2.27
ACTCGAGC | 1.04
ACTCGCGCGA | 1.15
ACTCGGCCA | 1.42
ACTCGGCCCG | 0.999

Sequence | switch fluorescence ratio
ACTCGTACGG | 1.08
ACTCGTATGT | 1.01
ACTCGTCAAT | 3.13
ACTCGTTCCG | 1.01
ACTCTAGGGT | 1.14
ACTCTATATC | 1.11
ACTCTCAATT | 1.21
ACTCTGTACC | 1.1
ACTCTTTGGA | 0.994
ACTGATAGCT | 1.02
ACTGATTATG | 0.987
ACTGATTCAT | 0.966
ACTGATTTGC | 1.06
ACTGCAGTTC | 1.01
ACTGCCATTA | 1.19
ACTGCGGA | 1.07
ACTGCGGCCC | 1.02
ACTGCGGGAG | 1.05
ACTGCGTGTT | 1.02
ACTGCTATCT | 1.16
ACTGCTTAAA | 0.997
ACTGCTTGTA | 0.989
ACTGGAAGTT | 0.925
ACTGGACACT | 1.14
ACTGGACTGG | 1.05

— the supplement of paper PMC10126150
